Measurements reported in patent publication US5821230A, “GnRH antagonist decapeptides” (Ferring BV, priority 1997, dated 1998).
Part of at least one peptide drawing is inferred or uncertain, most often the ends. Some entries repeat one wording, which the source may state once for all of them. Some compounds share one range, which may span the group rather than tell each member. *1 amine or outer side, *2 acyl side, *3 side chain or, on linkers, in order; H or OH if unused. Where a SMILES comes first, the peptide text is derived from it. Side-chain parts run from the residue outwards. [ ]: non-standard residue; d: D form. The star is where a group is joined. dPhe(4-CH2NHCONH2) = NC(=O)NCc1ccc(C[C@@H](N)C(=O)O)cc1; Dihydroorotyl(S) = O=C1C[C@@H](C(=O)*)NC(=O)N1; dPhe(4-NH2) = Nc1ccc(C[C@@H](N)C(=O)O)cc1; dPhe(4-Cl) = N[C@H](Cc1ccc(Cl)cc1)C(=O)O; Phe(4-NH2) = Nc1ccc(C[C@H](N)C(=O)O)cc1; d2Nal = N[C@H](Cc1ccc2ccccc2c1)C(=O)O; Lys(iPr) = CC(C)NCCCC[C@H](N)C(=O)O; dCit = NC(=O)NCCC[C@@H](N)C(=O)O; dDap = NC[C@@H](N)C(=O)O; CO = O=C([*:1])[*:2]

Assays:
[1] = tested on: LH secretion; test: in vivo suppression of circulating LH levels in castrated male Sprague-Dawley rats treated subcutaneously; design: species or system rat; conditions: for suppression of LH compared with a reference peptide: standard in vivo rat test as in Example 1
[2] = hydrophilicity by RP-HPLC retention time, TEAP pH 7.0 gradient; assay type: physicochemical; conditions: RP-HPLC, 40% to 70% Buffer B over 30 minutes, pH 7.0
Protocol: Hydrophilicity is tested by measuring retention time using RP-HPLC with a gradient of 40% Buffer B to 70% Buffer B over 30 minutes, with Buffer A being TEAP pH 7.0 and Buffer B being 70% CH3 CN and 30% Buffer A at pH 7.0.

[3] = dosage of 50 micrograms per rat sc

| Structure (SMILES) | in vivo suppression of LH secretion compared with a reference peptide ([1]; dosage not printed at the place) | hydrophilicity compared with a reference peptide [2] | suppression of LH compared with a reference peptide [1, 3] | duration of action, as classed in words [1, 3] |
| --- | --- | --- | --- | --- |
| CNC(=O)NC[C@@H](NC(=O)[C@@H](Cc1ccc(Cl)cc1)NC(=O)[C@@H](Cc1ccc2ccccc2c1)NC(C)=O)C(=O)N[C@@H](CO)C(=O)N[C@@H](Cc1ccc(O)cc1)C(=O)N[C@H](CCCNC(N)=O)C(=O)N[C@@H](CC(C)C)C(=O)N[C@@H](CCCNC(=N)N)C(=O)N1CCC[C@H]1C(=O)N[C@H](C)C(N)=O [Peptide No. 3, Ac-D-2Nal-D-4Cpa-D-Dpr(methylcarbamoyl)-Ser-Tyr-D-Cit-Leu-Arg-Pro-D-Ala-NH2] (Ac-[d2Nal][dPhe(4-Cl)][dDap]([CO-NHMe])SY[dCit]LRP[dA]-NH2) | longer duration of in vivo suppression of LH than Cetrorelix | more hydrophilic than Acyline | – | – |
| CNC(=O)N[C@H](Cc1ccc2ccccc2c1)C(=O)N[C@H](Cc1ccc(Cl)cc1)C(=O)N[C@H](CCC(N)=O)C(=O)N[C@@H](CO)C(=O)N[C@@H](Cc1ccc(NC(=O)[C@@H]2CC(=O)NC(=O)N2)cc1)C(=O)N[C@H](Cc1ccc(CNC(N)=O)cc1)C(=O)N[C@@H](CC(C)C)C(=O)N[C@@H](CCCCNC(C)C)C(=O)N1CCC[C@H]1C(=O)N[C@H](C)C(N)=O [Example 7D, N-methylcarbamoyl-β-D-2Nal-D-4Cpa-D-Gln-Ser-4Aph(hydroorotyl)-D-4Amf(carbamoyl)-Leu-Lys(isopropyl)-Pro-D-Ala-NH2] ({NHMe-CO}-[d2Nal][dPhe(4-Cl)][dQ]S[Phe(4-NH2)](Dihydroorotyl(S))[dPhe(4-CH2NHCONH2)]L[Lys(iPr)]P[dA]-NH2) | – | more hydrophilic than Acyline | substantially as effective as Acyline for 2 to 3 days | – |
| CC(=O)Nc1ccc(C[C@@H](NC(=O)[C@H](Cc2ccc(NC(=O)[C@@H]3CC(=O)NC(=O)N3)cc2)NC(=O)[C@H](CO)NC(=O)[C@H](CCC(N)=O)NC(=O)[C@@H](Cc2ccc(Cl)cc2)NC(=O)[C@@H](Cc2ccc3ccccc3c2)NC(C)=O)C(=O)N[C@@H](CC(C)C)C(=O)N[C@@H](CCCCNC(C)C)C(=O)N2CCC[C@H]2C(=O)N[C@H](C)C(N)=O)cc1 [Example 8A, Ac-β-D-2Nal-D-4Cpa-Gln-Ser-4Aph(Hor)-D-Aph(acetyl)-Leu-Lys(isopropyl)-Pro-D-Ala-NH2] (Ac-[d2Nal][dPhe(4-Cl)]QS[Phe(4-NH2)](Dihydroorotyl(S))[dPhe(4-NH2)](Ac)L[Lys(iPr)]P[dA]-NH2) | – | more hydrophilic than Acyline | substantially as active as Acyline in suppressing LH levels over 4 days | long-acting |
| CNC(=O)CC[C@H](NC(=O)[C@@H](Cc1ccc(Cl)cc1)NC(=O)[C@@H](Cc1ccc2ccccc2c1)NC(C)=O)C(=O)N[C@@H](CO)C(=O)N[C@@H](Cc1ccc(NC(=O)[C@@H]2CC(=O)NC(=O)N2)cc1)C(=O)N[C@H](Cc1ccc(NC(C)=O)cc1)C(=O)N[C@@H](CC(C)C)C(=O)N[C@@H](CCCCNC(C)C)C(=O)N1CCC[C@H]1C(=O)N[C@H](C)C(N)=O [Example 8B, Ac-β-D-2Nal-D-4Cpa-Gln(methyl)-Ser-4Aph(hydroorotyl)-D-4Aph(acetyl)-Leu-Lys(isopropyl)-Pro-D-Ala-NH2] (Ac-[d2Nal][dPhe(4-Cl)]E(NHMe)S[Phe(4-NH2)](Dihydroorotyl(S))[dPhe(4-NH2)](Ac)L[Lys(iPr)]P[dA]-NH2) | – | more hydrophilic than Acyline | substantially as long acting as Acyline | – |
